Results: the supplement of paper PMC12217912
Some of the results follow. Sequences were assembled here from the parent chain. Inactive controls read about 0.05.

B1: TEV protease; numbered along this chain (parent)
chain: MGESLFKGPRDYNPISSSICHLTNESDGHTTSLYGIGFGPFIITNKHLFRRNNGTLVVQSLHGVFKVKDTTTLQQHLVDGRDMIIIRMPKDFPPFPQKLKFREPQREERICLVTTNFQTKSMSSMVSDTSCTFPSGDGIFWKHWIQTKDGQCGSPLVSTRDGFIVGIHSASNFTNTNNYFTSVPKNFMELLTNQEAQQWVSGWRLNADSVLWGGHKVFMVKPEEPFQPVKEATQL

Variants of: B1
Test: raw area under fraction-flipped curve 0-4 h after induction (AUC4h, not background-subtracted), DNA-recorder readout of cleavage of the substrate (dimensionless); higher = more cleavage of the substrate by the protease variant
Conditions: temperature: 34 °C; time window: 0-4 h after rhamnose induction
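Further: Bxb1 expression induced with 0.2% (w/v) L-rhamnose at OD600 near 0.5, cultures sampled hourly, flipped fraction per protease–substrate barcode pair counted by paired-end Illumina sequencing.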

Variant	area with substrate ENLYFHS	area with substrate ENLYFNS	area with substrate ENLYFRS	area with substrate ENLYFSS	area with substrate ENLYFES	area with substrate ENLYFWS	area with substrate ENLYFFS	area with substrate ENLYFIS	area with substrate ENLYFGS	area with substrate ENLYFLS
T119W	0.0434	0.0703	0.0574	0.0419	–	–	–	–	–	–
T119G	–	–	–	–	0.057	0.0458	–	–	–	–
G153Q	–	–	0.0438	–	–	–	0.082	–	–	–
G153S	–	–	0.041	–	–	–	0.0515	0.0442	–	–
L156Y	–	–	0.0512	0.058	–	0.0616	0.0502	0.0553	0.0627	0.0589
Y34H	–	0.0668	0.0704	0.0751	–	0.0539	–	0.0741	0.0561	–
W141N	0.066	0.0548	–	0.0444	–	–	0.0427	0.0544	–	–
K90M	0.0477	–	0.0338	0.0523	–	–	–	–	–	–
D137A	–	0.0602	–	–	0.094	0.0549	0.0821	0.0438	–	–
H215S	–	–	–	–	–	–	0.0693	0.0704	–	–
A170I	–	–	–	–	–	–	–	0.0558	–	–
A170S	–	–	–	–	–	0.0558	0.0477	0.0567	–	–
A170F	–	0.0643	–	–	–	–	0.0454	–	–	–
A170R	–	0.0512	–	–	–	0.0503	–	–	0.0367	–
A170K	0.0418	–	–	–	–	0.0443	0.0746	–	–	0.062
V58D	–	0.0356	–	–	–	0.0513	–	–	–	–
S169Y	–	–	–	–	–	0.0611	–	0.0681	–	0.0594
N178Y	0.0722	0.0797	–	–	–	0.0508	–	0.0453	–	–
N178M	–	–	–	–	–	0.0435	–	0.0477	–	0.0563
N178Q	–	–	0.0623	–	–	0.0518	0.0651	0.0485	–	–
L190N	–	–	0.0489	–	0.0599	–	0.0609	0.0617	–	–
L235C	–	–	–	–	0.0617	–	0.0791	0.0549	–	–
L235F	–	–	–	–	–	–	0.114	–	–	–
C131P	–	–	–	–	–	–	–	–	0.0625	–
C131E	–	0.0642	–	–	–	–	–	–	–	–
S154N	–	0.0617	–	–	–	–	–	–	0.1	–
N177Q	–	–	0.058	–	–	–	–	–	–	0.0506

Same assay, conditions: temperature: 34 °C; time window: 0-4 h after rhamnose induction

Variant	area with substrate ENLYFMS	area with substrate ENLYFPS	area with substrate ENLYFTS	area with substrate ENLYFYS	area with substrate ENLYFKS	area with substrate ENLYFVS
L156Y	0.0554	0.0637	0.0586	0.045	–	–
Y34H	0.0676	–	–	–	0.0623	–
W141N	–	–	0.0414	–	–	–
K90M	0.0785	0.049	–	–	–	–
D137A	–	0.0399	–	0.0357	–	–
H215S	–	–	–	0.0573	–	–
A170S	–	–	0.0507	–	–	–
A170R	–	–	0.0554	–	–	–
A170K	–	0.0603	–	–	–	–
V58D	0.0366	–	0.0639	–	–	–
N178Y	0.0815	0.058	–	–	–	–
N178M	–	0.0376	–	–	–	–
N178Q	0.091	0.0641	–	0.04	–	–
L190N	–	0.0539	–	–	–	–
L235C	0.0455	–	–	–	0.0854	0.0144
L235F	0.0698	0.0518	–	–	0.0535	–
C131Q	0.0618	–	–	–	–	–
C131P	0.0729	0.0494	–	–	–	0.068
S154N	–	–	–	–	0.0631	–
